{"source": "PubChem BioAssay AID651820", "about": "(National Center for Advancing Translational Sciences (NCATS), 2012)", "note": "The campaign covered roughly 340,000 compounds. About 12,000 (3.5%) were called active. The inconclusive results got no clear call from the source; some entries with a clear call stand among them for comparison. Calls come from the whole dose curve; as a rule, active = well fitted inhibition curve with a large enough effect; inconclusive = small, poorly fitted or top-dose-only effect, or another doubt; inactive = no such curve, though single readings can be large or run the other way. No potency is given beside an inconclusive call; the fits are too rough. % is set by controls: 0 for no effect and ±100 for the full control effect; potency is the fitted concentration of half-maximal effect; tags give direction and shape of the fitted curve.", "data": [{"experiment": "qHTS Assay for Inhibitors of Hepatitis C Virus (HCV)", "settings": "Huh7.5.1 HCVcc-Cre (HCVcc is cell-culture hepatitis C virus) infection, luciferase reporter, 44 h; activity change, negative = inhibition: at 41.8 µM (top of the series) unless noted", "procedure,_shortened": "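Infectious HCVcc-Cre (~0.5 moi) was added to cells just after compound, with cells seeded 4 h earlier at 1,000 per well. Luciferase activity after 44 h culture reported infection; substrate was incubated 15 min at room temperature before reading.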", "values": [{"compound": "O=C(c1ccc(S(=O)(=O)N2CCCCCC2)cc1)N1CCN(c2ccccn2)CC1", "activity change, negative = inhibition": "inactive: 0.151%"}, {"compound": "O=C(N/N=C/c1cc(Br)cs1)c1ccc2c(c1)OCCO2", "activity change, negative = inhibition": "inconclusive: -43.9% [inhibitor]"}, {"compound": "COc1ccc(COC(=O)c2sc3nc4n(c(=O)c3c2C)CCC4)cc1", "Potency": "inconclusive [inhibitor, single point]"}, {"compound": "Cc1cccc(-n2ncc3c(NC4CCCCC4)ncnc32)c1", "Potency": "inconclusive [inhibitor, partial curve]"}, {"compound": "O=C(NCc1ccccc1CN1CCCC1)c1ccc(Cl)c(N2CCCC2=O)c1", "Potency": "active: 17.8 µM"}, {"compound": "CCCc1nc(N2CCOCC2)c(C#N)c2c1CCCC2", "Potency": "inconclusive [inhibitor, single point]"}, {"compound": "O=C(c1cccc(F)c1F)N1CCCc2ccccc21", "activity change, negative = inhibition": "inactive: -6.23%"}, {"compound": "CCCCCc1nc2c(c(=O)c3ccccc3n2C)c(=O)n1Cc1ccc(OC)cc1", "Potency": "inconclusive [inhibitor, partial curve]"}, {"compound": "COc1ccc(C(CNC(=O)COc2ccc(Br)cc2F)N2CCCC2)cc1", "note": "(stereo unspecified)", "Potency": "inconclusive [inhibitor, single point]"}, {"compound": "Clc1ccccc1CSc1nc2ccncc2[nH]1", "activity change, negative = inhibition": "inactive: -1.9%"}, {"compound": "O=C1NC(c2cccc3ccccc23)Nc2ccc(Cl)cc21", "note": "(stereo unspecified)", "activity change, negative = inhibition": "inactive: -24.3%"}, {"compound": "COc1cccc(COC(=O)c2c(C)nn(-c3ccccc3)c2Cl)c1OC", "Potency": "inconclusive [inhibitor, partial curve, poor fit]"}, {"compound": "CCC1CCCCN1CCCNC(=O)c1ccc2c(c1)N(Cc1ccc(F)cc1)C(=O)c1ccccc1S2=O", "note": "(stereo unspecified)", "Potency": "inconclusive [inhibitor, single point]"}, {"compound": "O=C(Nc1ccccc1)Oc1cccc2cccnc12", "Potency": "inconclusive [inhibitor, single point]"}, {"compound": "O=C(Nc1cccs1)Nc1ccc(Br)cc1F", "Potency": "inconclusive [inhibitor, single point]"}, {"compound": "CCOC(=O)C1CCCN(C(=O)c2ccc(CNS(=O)(=O)c3ccc(C)cc3)cc2)C1", "note": "(stereo unspecified)", "Potency": "inconclusive [inhibitor, single point]"}, {"compound": "S=C(c1ccc(-c2ccccc2Cl)o1)N1CCOCC1", "Potency": "inconclusive [inhibitor, single point]"}, {"compound": "CC(=O)c1c(C)[nH]c(C(=O)OCC(=O)Nc2cccc(S(=O)(=O)N3CCCC3)c2)c1C", "Potency": "inconclusive [inhibitor, full curve]"}, {"compound": "Cc1ccc(C(c2nnnn2Cc2cccs2)N2CCN(Cc3ccc4c(c3)OCO4)CC2)cc1", "note": "(stereo unspecified)", "Potency": "inconclusive [inhibitor, single point]"}, {"compound": "Cc1ccc(-c2cc(C(=O)N/N=C/C(Br)=C/c3ccccc3)n[nH]2)o1", "Potency": "inconclusive [inhibitor, single point]"}, {"compound": "Cc1ccc(NC(=O)CSc2nc3ccccc3nc2N2CCOCC2)cc1", "Potency": "inconclusive [inhibitor, single point]"}, {"compound": "CC(OC(=O)c1n[nH]c2ccccc12)C(=O)NC1CCCCC1C", "note": "(stereo unspecified)", "Potency": "inconclusive [inhibitor, single point]"}, {"compound": "CC/C(=N\\N1CCCCCC1)c1c(O)n(-c2ccc(C)cc2)c(=O)[nH]c1=O", "activity change, negative = inhibition": "inactive: 4.4%"}, {"compound": "COc1ccc(NC(=O)c2cc(-c3ccc(C)o3)nc3ccccc23)cc1OC", "Potency": "inconclusive [inhibitor, full curve]"}, {"compound": "O=C(c1cc2ccccc2oc1=O)N(Cc1ccco1)Cc1cccs1", "activity change, negative = inhibition": "inactive: -1.37%"}, {"compound": "Cc1ccc(C)n1-c1cc(S(=O)(=O)N2CCOCC2)ccc1N1CCCC1", "Potency": "inconclusive [inhibitor, partial curve]"}, {"compound": "COC(=O)c1cc(CNC(=O)c2ccccc2OCc2c(C)noc2C)ccc1OC", "Potency": "inconclusive [inhibitor, single point]"}, {"compound": "Cc1ccc(NC(=O)c2nc[nH]c2C(=O)NCCCNC(=O)c2[nH]cnc2C(=O)Nc2ccc(C)cc2)cc1", "activity change, negative = inhibition": "inactive: 7.32%"}, {"compound": "CCN1c2cccc3cccc(c23)S1(=O)=O", "Potency": "inconclusive [inhibitor, partial curve, poor fit]"}, {"compound": "COc1ccc(CCNC(=O)COC(=O)/C=C/c2cc(OC)ccc2OC)cc1", "Potency": "inconclusive [inhibitor, single point]"}, {"compound": "S=C(NNc1ccnc2cc(Cl)ccc12)Nc1ccccc1Cl", "Potency": "inconclusive [inhibitor, single point]"}, {"compound": "Cn1c(CN2CCOCC2)nnc1SCc1cccc(F)c1", "activity change, negative = inhibition": "inactive: 14.7%"}, {"compound": "O=C(NCc1cccs1)c1cc(-c2ccccc2)nc2ccccc12", "Potency": "inconclusive [inhibitor, single point]"}, {"compound": "CN1CCC[C@H]1CCNC(=O)c1c(-c2ccsc2)sc2ccccc12", "Potency": "inconclusive [inhibitor, single point]"}, {"compound": "COc1cccc(C(=O)c2c(C)c(CCC#N)n3ccccc23)c1", "Potency": "inconclusive [inhibitor, partial curve]"}, {"compound": "Cc1ccc(S(=O)(=O)NC2c3cccc4cccc(c34)C2Sc2nncn2C)cc1", "note": "(stereo unspecified)", "activity change, negative = inhibition": "inactive: -0.793%"}, {"compound": "Fc1ccc(C2=CC(c3ccco3)n3nnnc3N2)cc1", "note": "(stereo unspecified)", "activity change, negative = inhibition": "inactive: 8.03%"}, {"compound": "COc1ccccc1Nc1nn2c(=O)c3ccc(C(=O)N4CCCC(C)C4)cc3nc2s1", "note": "(stereo unspecified)", "Potency": "inconclusive [inhibitor, partial curve]"}, {"compound": "COc1ccc(CN2CCN(C(=O)CCC(=O)Nc3nnc(CC(C)C)s3)CC2)cc1F", "Potency": "inconclusive [inhibitor, partial curve]"}, {"compound": "CCCCCCCCNC(=S)NCCN1CCCCC1", "Potency": "inconclusive [inhibitor, single point]"}, {"compound": "Cc1nc2ccccc2n1Cc1ccccc1Br", "Potency": "inconclusive [inhibitor, partial curve]"}, {"compound": "CC(C)c1ccc(NC(=O)C2CCCN(S(=O)(=O)c3ccc4c(c3)C(C)(C)C(=O)N4C)C2)cc1", "note": "(stereo unspecified)", "Potency": "active: 12.6 µM"}, {"compound": "O=C(c1cc(-c2ccncc2)nc2ccc(Cl)cc12)N1CCN(Cc2ccc3c(c2)OCO3)CC1", "Potency": "inconclusive [inhibitor, single point]"}, {"compound": "O=C(c1ccc(S(=O)(=O)N2CCCCCC2)cc1)N1CCC(CN2C(=O)c3cccc4cccc(c34)C2=O)CC1", "Potency": "active: 10 µM"}, {"compound": "CCOC(=O)CN1CC23C=CC(O2)C(C(=O)NC2CCCC2)C3C1=O", "note": "(stereo unspecified)", "activity change, negative = inhibition": "inactive: 1.45%"}, {"compound": "O=c1[nH]c(Nc2ccccc2Cl)cc2ccccc12", "Potency": "inconclusive [inhibitor, single point]"}, {"compound": "COc1ccc(N2CCN(Cc3nc4ccsc4c(=O)[nH]3)CC2)cc1", "activity change, negative = inhibition": "inactive: -3.72%"}, {"compound": "Cc1cc(/C=N\\NC(=O)c2cccs2)c(C)n1-c1ccc2ncccc2c1", "Potency": "inconclusive [inhibitor, single point]"}, {"compound": "CCOC(=O)COc1cc2c3c(c(=O)oc2cc1C)CCCC3", "Potency": "inconclusive [inhibitor, partial curve]"}, {"compound": "Cn1c(-c2ccc3c(c2)OCO3)cnc1NCc1ccccc1Cl", "Potency": "inconclusive [inhibitor, partial curve]"}, {"compound": "Cc1ccc(-c2nc(CS(=O)CC(=O)NCCCN3CC(C)CC(C)C3)c(C)o2)cc1", "note": "(stereo unspecified)", "Potency": "inconclusive [inhibitor, single point]"}, {"compound": "CCc1ccc(C(=O)NN(C(=O)c2ccc(CC)cc2)C(C)(C)C)cc1", "activity change, negative = inhibition": "inactive: -24.4%"}, {"compound": "CN1CCC(OC(=O)COc2ccc(C(C)(C)C)cc2)CC1", "activity change, negative = inhibition": "inactive: 24.5%"}, {"compound": "CCCn1nc(NC(=O)c2ccco2)c2cc3ccccc3nc21", "Potency": "active: 35.5 µM"}, {"compound": "Cc1ccc(S(=O)(=O)CCC(=O)Nc2ccc(F)cc2)cc1", "activity change, negative = inhibition": "inactive: 13.8%"}, {"compound": "CC(=O)c1cccc(NC(=S)NCc2ccccc2)c1", "Potency": "inconclusive [inhibitor, partial curve]"}, {"compound": "C=CCOc1c(Cl)cc(C2NC(=O)NC(C)=C2C(=O)OC)cc1Cl", "note": "(stereo unspecified)", "Potency": "active: 11.2 µM"}, {"compound": "Cc1[nH]c2ccccc2c1SCCNC(=O)c1ccc(S(=O)(=O)N2CCCC2)cc1", "Potency": "inconclusive [inhibitor, single point]"}, {"compound": "COc1ccc(-n2c(C(C)n3nc(C)c([N+](=O)[O-])c3C)n[nH]c2=S)cc1", "note": "(stereo unspecified)", "activity change, negative = inhibition": "inactive: 23.7%"}, {"compound": "COc1ccc(NC(=O)c2cccc([N+](=O)[O-])c2)cc1", "Potency": "inconclusive [inhibitor, single point]"}, {"compound": "COc1ccccc1-n1cnc2cc(NCc3cccs3)ccc21", "Potency": "inconclusive [inhibitor, full curve, poor fit]"}, {"compound": "O=[N+]([O-])c1cccc(/C=N/Nc2nc(C(Cl)(Cl)Cl)nc3ccccc23)c1", "Potency": "inconclusive [inhibitor, single point]"}, {"compound": "O=C1NC(=O)C(CSc2ccccc2)(c2ccccc2)N1", "note": "(stereo unspecified)", "activity change, negative = inhibition": "inactive: 1.39%"}, {"compound": "CCOC(=O)c1c(NC(=O)CSc2nnc(C)s2)sc2c1CCC(CC)C2", "note": "(stereo unspecified)", "Potency": "inconclusive [inhibitor, partial curve]"}, {"compound": "CCOc1ccccc1/C=N/Nc1ccc(Cl)nn1", "Potency": "inconclusive [inhibitor, partial curve]"}, {"compound": "CNC(=S)NC1CC2CCCC(C1)N2Cc1ccco1", "note": "(stereo unspecified)", "activity change, negative = inhibition": "inactive: 3.85%"}, {"compound": "COc1ccc(OC)c2cc3ccccc3cc12", "Potency": "inconclusive [inhibitor, single point]"}, {"compound": "CSc1nc(N)c(C(=O)NC2CCCCC2)s1", "Potency": "inconclusive [inhibitor, single point]"}, {"compound": "O=C(COC(=O)c1ccc(S(=O)(=O)Nc2ccccc2)cc1)NC1CCCC1", "Potency": "inconclusive [inhibitor, single point]"}, {"compound": "Nc1ccc(C(=O)N2CCN(S(=O)(=O)c3ccc4c(c3)OCCO4)CC2)cc1[N+](=O)[O-]", "Potency": "inconclusive [inhibitor, single point]"}, {"compound": "Cc1cc(C(=O)CSc2ncnc3ccccc23)c(C)n1C1CC1", "Potency": "active: 10 µM"}]}]}
